# Hit rate of the full screen: of about 220,000 compounds, about 2,300 (1%) were called active. Inconclusive results, whose numbers are uncertain, are shown with a selection of clear calls. The call rests on the fitted dose curve; in most records, active means well fitted inhibition curve with a large enough effect; inconclusive means small, poorly fitted or top-dose-only effect, or effect the other way; inactive means no such curve, though single readings can be large or run the other way. No potency is given beside an inconclusive call; the fits are too rough.
# Biological target: Neuropeptide S receptor (Homo sapiens) (UniProt Q6W5P4)
# Chain of UniProt Q6W5P4 (Q6W5P4 whole entry, looked up): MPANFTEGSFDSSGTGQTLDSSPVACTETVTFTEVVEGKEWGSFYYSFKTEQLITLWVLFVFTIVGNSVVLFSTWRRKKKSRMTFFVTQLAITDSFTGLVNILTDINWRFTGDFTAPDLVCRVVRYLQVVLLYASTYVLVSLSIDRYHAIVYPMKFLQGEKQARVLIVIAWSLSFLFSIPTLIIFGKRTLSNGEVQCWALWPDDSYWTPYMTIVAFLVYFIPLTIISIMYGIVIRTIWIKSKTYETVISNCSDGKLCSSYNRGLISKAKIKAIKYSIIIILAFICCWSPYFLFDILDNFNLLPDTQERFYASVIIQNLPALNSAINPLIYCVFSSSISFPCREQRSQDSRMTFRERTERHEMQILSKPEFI
# Assay: qHTS Assay for Antagonists of the Neuropeptide S Receptor: cAMP Signal Transduction; further: nearly all actives have a fitted effect of over 50% in size
# Details: CHO-NPSR cells, cAMP TR-FRET, antagonist mode; activity change, negative = inhibition: at 38.3 µM (top of the series) unless noted
# On the % scale 0 is the no-effect control and ±100 the full control effect; potency means the concentration at half of the fitted maximal effect; tags describe the fitted curve by direction and shape.
SMILES,"activity change, negative = inhibition",Potency
CC1=C(C(=O)N2CCCCC2)C2(CCC(C)CC2)OC1=O (stereo not drawn),inactive: 21.3%,
Cc1cc(C(F)(F)F)n(-c2nc(C(=O)N/N=C/c3ccc(F)cc3)cs2)n1,,"inconclusive [inhibitor, single point]"
C=CCN1C(=O)CN=C1Nc1cc(C)ccc1C,,"inconclusive [inhibitor, full curve, poor fit]"
C=C(C)COc1ccc(-c2[nH]ncc2-c2ccc(Br)cc2)c(O)c1,,"inconclusive [inhibitor, single point]"
COc1ccc(S(=O)(=O)N2CCC(C(=O)NCCC3=CCCCC3)CC2)cc1C,,"inconclusive [inhibitor, single point]"
O=C(CCCOc1ccc(Cl)cc1)N1CCCCCC1,,"inconclusive [inhibitor, full curve]"
CCCN1C(=O)/C(=C/c2ccc(N3CCCC3)c(C)c2)NC1=S,,"inconclusive [inhibitor, partial curve]"
COc1cccc(/C=N/NC(=O)C(=O)N/N=C/c2cccc(OC)c2O)c1O,inactive: 3.81%,
CCC(=O)OCc1cc2cccc(C)c2[nH]c1=O,,"inconclusive [inhibitor, partial curve]"
Cc1nn(Cc2ccccc2)c(C)c1C(=O)OCC(=O)c1cc(C)n(C2CC2)c1C,,"inconclusive [inhibitor, partial curve]"
O=C1c2[nH]nc(-c3ccccc3O)c2C(c2ccc(F)cc2)N1Cc1ccco1 (stereo not drawn),,"inconclusive [inhibitor, partial curve, poor fit]"
O=C(O)COc1ccccc1/C=N/NC(=O)CN1CCN(Cc2ccc(Cl)cc2)CC1,,"inconclusive [activator, single point]"
O=C(COc1ccccc1)N(Cc1cc2ccccc2[nH]c1=O)CC1CCCO1 (stereo not drawn),,"inconclusive [activator, single point]"
Cc1csc(-c2coc3cc(O)cc(C)c3c2=O)n1,,"inconclusive [inhibitor, partial curve]"
COC1=C(Nc2ccc(C)cc2)C(=O)c2ccccc2C1=O,inactive: -29.8%,
CCOC(=O)c1c(CSc2ccsc2)n(C)c2cc(Br)c(O)c(CN(C)C)c12,,active: 12.6 µM
COCCNC(=O)c1ccccc1NC(=O)CN(c1ccc2c(c1)OCO2)S(C)(=O)=O,,"inconclusive [inhibitor, single point]"
COc1ccc(CC(=O)Nc2cccc(-c3nnc(-c4ccccc4)o3)c2)cc1OC,,"inconclusive [inhibitor, single point]"
Cc1cccc(C)c1-n1nnnc1SCSc1nnnn1-c1c(C)cccc1C,,"inconclusive [inhibitor, single point]"
CCN1CCc2c(C#N)c(N3CCOCC3)nc(NCc3ccccc3)c2C1,inactive: -6.75% [at 46.1 µM],
CCCCSc1nc2ccc(Nc3nc(N4CCOCC4)nc(N4CCOCC4)n3)cc2s1,,"inconclusive [inhibitor, single point]"
Cc1ccc(S(=O)(=O)c2c(N)n(CCC(C)C)c3nc4ccccc4nc23)cc1,,"inconclusive [inhibitor, single point]"

SMILES,"activity change, negative = inhibition",Potency
O=C(CSc1ncnc2c1oc1ccccc12)Nc1cccc(C(F)(F)F)c1,,"inconclusive [inhibitor, partial curve, poor fit]"
Cc1cccc(N2CCN(C(=O)c3ccc(Cl)c(S(=O)(=O)N4CCc5ccccc5C4)c3)CC2)c1C,inactive: -11.6%,
O=C(CSc1nc2ccc(Nc3nc(N4CCCC4)nc(N4CCCC4)n3)cc2s1)NCc1ccco1,inactive: -32%,
Cc1nc(SCC(=O)c2cccs2)c2oc3ccccc3c2n1,inactive: -21.2% [at 46.1 µM],
COc1ccc(S(=O)(=O)N2CCCN(CCC(=O)Nc3cccc(C(F)(F)F)c3)CC2)cc1,,"inconclusive [inhibitor, partial curve]"
CN=C1S/C(=C/c2cn(CC(=O)OC)c3ccccc23)C(=O)N1C,,"inconclusive [inhibitor, single point]"
Cc1ccc2cc(C(c3nnnn3C3CCCC3)N3CCN(c4ccccc4)CC3)c(=O)[nH]c2c1 (stereo not drawn),,"inconclusive [inhibitor, partial curve]"
Clc1ccc(OCc2nn3c(-c4ccco4)nnc3s2)cc1,,"inconclusive [inhibitor, full curve, poor fit]"
Cc1ccc(-n2c3c(cc(C(=O)NCc4ccco4)c2=O)C(=O)CC(C)(C)C3)cc1,,"inconclusive [inhibitor, partial curve]"
Brc1ccccc1Cn1c(-c2cscn2)nc2ccccc21,,"inconclusive [inhibitor, single point]"
Cc1[nH]c2ccccc2c1CCN(Cc1cccnc1)C(=S)Nc1ccc(F)cc1,,active: 7.94 µM
COCCN1Cc2cccc(C(=O)Nc3c(C)cc(C)cc3C)c2C1=O,,"inconclusive [inhibitor, full curve, poor fit]"
CCN1C(=S)SC(=O)C1=C1C=C(C)N(Cc2ccco2)C(C)=C1,,"inconclusive [inhibitor, partial curve]"
O=C(Nc1ccc2c(c1)OCO2)C(c1ccc(Cl)cc1)N1CCN(C(=O)c2ccco2)CC1 (stereo not drawn),,"inconclusive [inhibitor, partial curve]"
COc1ccccc1CNC(=O)c1cc2c(C)nn(Cc3ccc(F)cc3)c2s1,,"inconclusive [inhibitor, partial curve]"
CC(C)=C1SC(N2CCCCC2)=NC1=O,inactive: -0.485% [at 46.1 µM],
CCOc1ccc(S(=O)(=O)NC(C)(C)C)cc1-c1nc2c(C(C)(C)C)nn(C)c2c(=O)[nH]1,,"inconclusive [inhibitor, single point]"
OCCCn1c(-c2ccccc2)nc(=S)c2c1CCCC2,,"inconclusive [activator, single point]"
CCCN(CCC)c1nc(N)nc(-c2cc(Cl)ccc2OC)n1,inactive: -25.9% [at 46.1 µM],
COCCn1nc2cc(C(=O)NCc3cc(C(F)(F)F)cc(C(F)(F)F)c3)ccc2c1OC,inactive: -18.6% [at 46.1 µM],
COc1ccc(OC)c(NC(=O)COC(=O)c2c3c(nc4ccccc24)CCCC3)c1,,"inconclusive [inhibitor, partial curve]"

# — PubChem BioAssay AID1461 (National Center for Advancing Translational Sciences (NCATS), 2008)
